Measured values as given in paper PMC4046113.
These are yes or no findings as the source states them, for the method shown. For some assays here: In cells and extracts the contact can be indirect. Some binding calls cover weakened binding; strength is not graded here. For some assays here: Where a sequence is shown, tags or fusion partners need not be part of it.

The chains behind the UniProt entries cited, without tags or fusion partners. Where a name states a change or a piece, a line headed by the entry shows the natural chain unless it says otherwise. Residues count along the entry.
UniProt O95292: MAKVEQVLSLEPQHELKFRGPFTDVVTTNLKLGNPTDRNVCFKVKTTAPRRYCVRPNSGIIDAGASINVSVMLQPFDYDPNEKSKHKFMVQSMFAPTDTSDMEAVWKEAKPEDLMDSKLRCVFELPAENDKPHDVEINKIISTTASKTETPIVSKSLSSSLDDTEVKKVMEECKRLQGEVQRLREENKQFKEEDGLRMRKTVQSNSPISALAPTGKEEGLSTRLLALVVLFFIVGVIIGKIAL
GST-VAPB1-220 (the entire cytosolic domain): residues 1-220 of O95292
UniProt Q9QY76: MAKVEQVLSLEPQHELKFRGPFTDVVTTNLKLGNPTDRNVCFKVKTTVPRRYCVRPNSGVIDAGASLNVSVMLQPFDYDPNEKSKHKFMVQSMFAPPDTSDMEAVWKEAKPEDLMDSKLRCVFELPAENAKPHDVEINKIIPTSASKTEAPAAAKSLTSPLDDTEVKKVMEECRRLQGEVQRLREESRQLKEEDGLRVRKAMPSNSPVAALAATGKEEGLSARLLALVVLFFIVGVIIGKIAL

T1: HA-tagged PTPIP51 (UniProt Q96TC7)
T1 sequence: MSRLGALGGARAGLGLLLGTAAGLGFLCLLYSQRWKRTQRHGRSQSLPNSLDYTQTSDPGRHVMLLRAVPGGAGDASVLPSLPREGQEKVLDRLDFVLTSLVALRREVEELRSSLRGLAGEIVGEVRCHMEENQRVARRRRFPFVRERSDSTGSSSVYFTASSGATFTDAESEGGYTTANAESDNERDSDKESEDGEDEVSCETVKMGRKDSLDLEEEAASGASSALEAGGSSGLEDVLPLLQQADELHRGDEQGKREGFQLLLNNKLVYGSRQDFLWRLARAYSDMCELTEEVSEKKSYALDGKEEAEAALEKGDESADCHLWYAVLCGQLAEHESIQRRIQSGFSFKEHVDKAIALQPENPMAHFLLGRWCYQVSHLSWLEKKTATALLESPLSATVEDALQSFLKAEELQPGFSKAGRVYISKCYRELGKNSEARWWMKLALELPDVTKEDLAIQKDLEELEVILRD


How the values were obtained:
myc-tagged VAPB = myc-tagged VAPB (UniProt O95292); test: co-IP; HEK293 cells co-transfected with VAPB or PTPIP51 and EGFP-tagged wild-type or mutant TDP-43; VAPB and PTPIP51 immunoprecipitated via their myc or HA tags, samples probed for co-immunoprecipitating TDP-43
HA-tagged PTPIP51 [1] = molecular target: T1, HA-tagged PTPIP51; test: as above
HA-tagged PTPIP51 [2] = molecular target: T1, HA-tagged PTPIP51; test: co-IP; HEK293 cells transfected with PTPIP51-HA, lysed in immunoprecipitation buffer (50 mM Tris-citrate pH 7.4, 150 mM NaCl, 1% Triton X-100, 5 mM EGTA, 5 mM EDTA); IP via the HA tag, endogenous VAPB detected by immunoblotting; co-transfected EGFP control or wild-type or mutant TDP-43
HA-tagged PTPIP51 [3] = molecular target: T1, HA-tagged PTPIP51; test: co-IP; NSC34 cells transfected with PTPIP51-HA, lysed in RIPA buffer; IP via the HA tag, endogenous VAPB detected by immunoblotting; with control or TDP-43 siRNAs, or co-transfected EGFP control or wild-type or mutant EGFP-TDP-43
[4] = molecular target: endogenous VAPB (mouse) (mouse (endogenous in NSC34 cells and spinal cord)) (UniProt Q9QY76); test: co-IP; mouse spinal cords (non-transgenic and TDP-43 transgenic) homogenized and diluted into immunoprecipitation buffer; VAPB immunoprecipitated with rabbit anti-VAPB, bound PTPIP51 detected with rat PTPIP51 antibody
[5] = molecular target: GST-VAPB1-220 (the entire cytosolic domain) (UniProt O95292); test: pull-down; in vitro; 50 ug purified recombinant PTPIP51(36-470) incubated 16 h at 4 °C with GST or GST-VAPB(1-220) on glutathione-sepharose beads in PBS with 1% Triton X-100; bound PTPIP51 detected by immunoblotting; both purified

Row | binding (myc-tagged VAPB) | binding (HA-tagged PTPIP51 [1]) | Molecule | other results
1 | no binding | no binding | EGFP-TDP-43A382T (from UniProt Q13148 1-414) | 
2 | no binding | no binding | EGFP-TDP-43G348C (from UniProt Q13148 1-414) | 
3 | no binding | no binding | EGFP-TDP-43M337V (from UniProt Q13148 1-414) | 
4 | no binding | no binding | EGFP-TDP-43Q331K (from UniProt Q13148 1-414) | 
5 | no binding | no binding | EGFP-tagged wild-type TDP-43 (from UniProt Q13148 1-414) | 
6 |  |  | endogenous VAPB (HEK293) (from UniProt O95292 1-243) | binding (HA-tagged PTPIP51 [2]): binds
7 |  |  | endogenous VAPB (mouse) (from UniProt Q9QY76 1-243) | binding (HA-tagged PTPIP51 [3]): binds
8 |  |  | endogenous PTPIP51 (mouse spinal cord) (protein, UniProt Q3UJU9 1-470) MSRLGALGGSRAGLGLLLGTAAGLGFLCVLYSQRWKRTQRHGRSHSLPNSLDYAQASERGRQVTQFRAIPGEAGDAAILPSLSQEGQEKVLDRLDFVLTSLMALRREVEELQRSLQGLAGEIVGEVRSHIEENQRVARRRRFPFARERSDSTGSSSVYFTASSGAALTDAESEGGYTTANAESDYERDSDKESGDAEDEVSCETVRMGRKDSLDLDVEAASSPAAAALEEDDSSGREDVQLVLLQADELHQGSKQDKREGFQLLLNNKLAYGSRQDFLWRLARAYSDMSDLTEEESGKKSYALNGKEEAEAALKKGDESAACHLWYAVLCGQLAEHEGISKRIQSGFSFKEHVDKAIELQPEDPRGHFLLGRWCYQVSHLNWLEKKTATALFESPLSATVQDALQSFLKAEELQPGFSKAGRVYISKCYRELGKNSEARKWMKLAQELPDVTNEDSAFQKDLEELEVILG | binding [4]: binds
9 |  |  | PTPIP51 cytoplasmic domain (amino acids 36-470) (domain or fragment, UniProt Q96TC7 36-470) KRTQRHGRSQSLPNSLDYTQTSDPGRHVMLLRAVPGGAGDASVLPSLPREGQEKVLDRLDFVLTSLVALRREVEELRSSLRGLAGEIVGEVRCHMEENQRVARRRRFPFVRERSDSTGSSSVYFTASSGATFTDAESEGGYTTANAESDNERDSDKESEDGEDEVSCETVKMGRKDSLDLEEEAASGASSALEAGGSSGLEDVLPLLQQADELHRGDEQGKREGFQLLLNNKLVYGSRQDFLWRLARAYSDMCELTEEVSEKKSYALDGKEEAEAALEKGDESADCHLWYAVLCGQLAEHESIQRRIQSGFSFKEHVDKAIALQPENPMAHFLLGRWCYQVSHLSWLEKKTATALLESPLSATVEDALQSFLKAEELQPGFSKAGRVYISKCYRELGKNSEARWWMKLALELPDVTKEDLAIQKDLEELEVILRD | binding [5]: binds
